Source: the supplement of paper PMC8748497
This is one part of the list.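 Rule for the calls: active = GRHL reporter fold change of at least 2 over DMSO at 10 µM; inactive = below 2-fold.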 Many values rest on one well or one pass, so single values are uncertain.

Tested on: HEK293 GRHL-luciferase reporter
Assay: GRHL luciferase reporter activity, fold change over DMSO control; higher = stronger GRHL reporter activation
Conditions: 10 µM; 24 h
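Note: stable HEK293 line carrying repeated GRHL consensus sites upstream of a minimal promoter driving luciferase, luminescence read 24 h post-treatment, normalized to 0.5% DMSO vehicle wells.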

Compound	GRHL luciferase reporter activity
Cc1cccc(C)c1NC(=O)C1CCCCN1C (centres undefined)	inactive: 1.08
CC(C)c1c(O)c(-c2cc3c(c(C(C)C)c2O)CCC2C(C)(C)CCC[C@]32C)cc2c1CCC1C(C)(C)CCC[C@]21C (some centres undefined)	inactive: 1.15
O=C(CCCN1CCN(c2ccccn2)CC1)c1ccc(F)cc1	inactive: 0.852
CCC(=O)Oc1ccc2c(c1)CC[C@@H]1[C@@H]2CC[C@@]2(C)[C@H]1C[C@@H](OC(=O)CC)[C@@H]2OC(=O)CC	inactive: 0.985
COc1ccc2c(C)cc(=O)oc2c1	inactive: 1.23
CC1(C)S[C@@H]2[C@H](NC(=O)C(C(=O)O)c3ccccc3)C(=O)N2[C@H]1C(=O)O (some centres undefined)	inactive: 0.868
COc1ccc(CN2CCN(C(c3ccc(F)cc3)c3ccc(F)cc3)CC2)c(OC)c1OC	inactive: 1.09
CCCNC(C)C(=O)Nc1ccccc1C (centres undefined)	inactive: 0.94
O=C1O[C@H]([C@H](O)CO)C(O)=C1O	inactive: 0.695
C=C(C)[C@@H]1CC[C@]2(C)CC[C@]3(C)[C@H](CC[C@@H]4[C@@]5(C)CC[C@H](OC(C)=O)C(C)(C)[C@@H]5CC[C@]43C)[C@@H]12	inactive: 1.15
CN(C)CCCOc1nn(Cc2ccccc2)c2ccccc12	inactive: 0.63
O=C(CO)C(O)C(O)C(O)CO (centres undefined)	inactive: 0.33
COc1cc(C(=O)NC2CCCNC2)cc(OC)c1OC (centres undefined)	inactive: 0.862
CCC(=O)O[C@@H](O[P@](=O)(CCCCc1ccccc1)CC(=O)N1C[C@H](C2CCCCC2)C[C@H]1C(=O)O)C(C)C	inactive: 1.07
CCCCCCCCCCCCC(C(=O)O)C(C)C(=O)O (centres undefined)	inactive: 0.851
CC(C(=O)O)c1cccc(Oc2ccccc2)c1 (centres undefined)	inactive: 1.06
NS(=O)(=O)c1cc2c(cc1C(F)(F)F)NCNS2(=O)=O	inactive: 1.09

Compound	GRHL luciferase reporter activity
CC(C)Cc1ccc([C@H](C)C(=O)O)cc1	inactive: 1.02
CC(C)[C@H](N)C(=O)O	inactive: 0.855
CC1(C)O[C@@H]2C[C@H]3[C@@H]4CCC5=CC(=O)C=C[C@]5(C)[C@@]4(F)[C@@H](O)C[C@]3(C)[C@]2(C(=O)CO)O1	inactive: 0.886
CC(=O)N[C@@H](CC(C)C)C(=O)O	inactive: 0.957
C=CC[C@@H]1/C=C(\C)C[C@H](C)C[C@H](OC)[C@H]2O[C@@](O)(C(=O)C(=O)N3CCCC[C@H]3C(=O)O[C@H](/C(C)=C/[C@@H]3CC[C@@H](O)[C@H](OC)C3)[C@H](C)[C@@H](O)CC1=O)[C@H](C)C[C@@H]2OC	inactive: 0.864
C[C@]12C=CC(=O)C=C1CC[C@@H]1[C@@H]2C(=O)C[C@@]2(C)[C@H]1CC[C@]2(O)C(=O)CO	inactive: 0.95
C[C@@H]1NC(=O)[C@@H]2CCCN2C(=O)[C@H](CC(N)=O)NC(=O)[C@@H]2CSSC[C@H](N)C(=O)N[C@H]3CSSC[C@H](NC1=O)C(=O)N[C@@H]([C@@H](C)O)C(=O)NCC(=O)N[C@H](C(=O)N[C@@H](Cc1ccc(O)cc1)C(=O)O)CSSC[C@H](NC(=O)[C@H](Cc1ccc(O)cc1)NC(=O)[C@H](CCC(=O)O)NC3=O)C(=O)N2	inactive: 0.86
Cc1ccc(S(=O)(=O)NC(=O)NN2CC3CCCC3C2)cc1 (centres undefined)	inactive: 1.26
Cc1c2oc3c(C)ccc(C(=O)N[C@@H]4C(=O)N[C@H](C(C)C)C(=O)N5CCC[C@H]5C(=O)N(C)CC(=O)N(C)[C@@H](C(C)C)C(=O)O[C@@H]4C)c3nc-2c(C(=O)N[C@@H]2C(=O)N[C@H](C(C)C)C(=O)N3CCC[C@H]3C(=O)N(C)CC(=O)N(C)[C@@H](C(C)C)C(=O)O[C@@H]2C)c(N)c1=O	inactive: 0.0522
CC(C)(C)c1ccc(C(=O)CCCN2CCC(OC(c3ccccc3)c3ccccc3)CC2)cc1	inactive: 0.471
N=c1nc(N2CCCCC2)cc(N)n1O	inactive: 0.933
COc1ccc(C(=O)/C=C/c2ccccc2)cc1	active: 194
CC(C[N+](C)(C)C)OC(N)=O (centres undefined)	inactive: 1.03
OCCN1CCN(CCCN2c3ccccc3Sc3ccc(C(F)(F)F)cc32)CC1	inactive: 0.403
COc1ccc(-c2oc3cc(OC)c(OC)c(OC)c3c(=O)c2OC)cc1OC	active: 2.11
COc1ccc(-c2oc3ccccc3c(=O)c2OC)cc1	active: 5.2
CC(C)(Sc1cc(C(C)(C)C)c(O)c(C(C)(C)C)c1)Sc1cc(C(C)(C)C)c(O)c(C(C)(C)C)c1	inactive: 1.08
